Reference: the supplement of paper PMC4967469
IC50 is the fitted dose that halves viability relative to control wells, and lower means more sensitive; a limit (>, <) means that the fit lies beyond the doses tested. AUC, from the same fit, is the share of area under the viability curve across the 256-fold dose range; the more sensitive the line, the further below 1. For some of these results: An inferred top dose was calculated from the reported fits. For some of these results: An entry number marks a drug with two screens in the source, which often give different values.

Experiments:
Experiment in all cases: Viability of human cancer cell lines after 72 h of drug (GDSC screen)
SNX-2112 = compound: CC1(C)CC(=O)c2c(C(F)(F)F)nn(-c3ccc(C(N)=O)c(N[C@H]4CC[C@H](O)CC4)c3)c2C1 [SNX-2112]; settings: top dose 2.56 µM
Method: (§1)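 Human cancer cell lines in 384-well plates, medium with 10% serum, drug for 72 h over a 256-fold dose range (nine 2-fold or five 4-fold steps up to the top dose). Adherent lines were fixed and stained with the nucleic acid dye Syto60, suspension lines read with resazurin; signal relative to control wells, capped at 0 and 100%. One two-parameter sigmoid per drug and line, fitted in a mixed model over all curves with the slope shared within a line.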

Vinblastine = compound: CC[C@]1(O)C[C@@H]2CN(CCc3c([nH]c4ccccc34)[C@@](C(=O)OC)(c3cc4c(cc3OC)N(C)[C@H]3[C@@](O)(C(=O)OC)[C@H](OC(C)=O)[C@]5(CC)C=CCN6CC[C@]43[C@@H]65)C2)C1 [Vinblastine]; settings: top dose 0.1 µM; top dose inferred
Method: as §1

Afatinib = compound: CN(C)C/C=C/C(=O)Nc1cc2c(Nc3ccc(F)c(Cl)c3)ncnc2cc1O[C@H]1CCOC1 [Afatinib]
Method: as §1

PF-562271 = compound: CN(c1ncccc1CNc1nc(Nc2ccc3c(c2)CC(=O)N3)ncc1C(F)(F)F)S(C)(=O)=O [PF-562271]; settings: top dose 2.56 µM; top dose inferred
Method: as §1

XMD13-2 = compound: O=C(NC1CC1)c1cccc(-c2ccc3c(NC(=O)C4CC4)n[nH]c3c2)c1 [XMD13-2]; settings: top dose 10.24 µM; top dose inferred
Method: as §1

[1] = top dose 0.5 µM, screen: GDSC drug entry 1032
[2] = top dose 10 µM, screen: GDSC drug entry 1377, top dose inferred

| Cell Line | AUC (SNX-2112) | IC50 (SNX-2112) | AUC (Vinblastine) | IC50 (Vinblastine) | AUC (Afatinib; [1]) | IC50 (Afatinib; [1]) | AUC (Afatinib; [2]) | IC50 (Afatinib; [2]) | AUC (PF-562271) | IC50 (PF-562271) | AUC (XMD13-2) | IC50 (XMD13-2) |
| --- | --- | --- | --- | --- | --- | --- | --- | --- | --- | --- | --- | --- |
| H2869 (mesothelioma, adherent) | 0.716 | 767 nM | 0.868 | > 100 nM | 0.984 | > 500 nM | 0.982 | > 10000 nM | 0.898 | > 2560 nM | 0.9 | > 10200 nM |
| NCI-H1092 (small cell lung carcinoma, suspension) | 0.543 | 210 nM | 0.963 | > 100 nM | 0.988 | > 500 nM | 0.983 | > 10000 nM | 0.985 | > 2560 nM | 0.918 | > 10200 nM |
| KARPAS-45 (lymphoblastic leukaemia, suspension) | 0.18 | 22 nM | 0.317 | 2.12 nM | 0.98 | > 500 nM | 0.991 | > 10000 nM | 0.919 | > 2560 nM | 0.814 | 4440 nM |
| KY821 (leukaemia, suspension) | 0.409 | 93.6 nM | 0.486 | 5.74 nM | 0.976 | > 500 nM | 0.991 | > 10000 nM | 0.981 | > 2560 nM | 0.975 | > 10200 nM |
| L-363 (myeloma, suspension) | 0.377 | 77.2 nM | 0.538 | 7.79 nM | 0.977 | > 500 nM | 0.978 | > 10000 nM | 0.949 | > 2560 nM | 0.874 | 7670 nM |
| NCI-H211 (small cell lung carcinoma, adherent) | 0.298 | 44 nM | 0.469 | 5.14 nM | 0.98 | > 500 nM | 0.966 | > 10000 nM | 0.901 | > 2560 nM | 0.789 | 4380 nM |
| KMRC-20 (kidney, adherent) | 0.975 | > 2560 nM | 0.601 | 11.9 nM | 0.965 | > 500 nM | 0.983 | > 10000 nM | 0.989 | > 2560 nM | 0.986 | > 10200 nM |
| TGW (neuroblastoma, adherent) | 0.363 | 70.9 nM | 0.762 | 31.1 nM | 0.991 | > 500 nM | 0.984 | > 10000 nM | 0.959 | > 2560 nM | 0.903 | 10200 nM |
| NCI-H2023 (lung adenocarcinoma, adherent) | 0.899 | > 2560 nM | 0.806 | 66.4 nM | 0.955 | > 500 nM | 0.93 | > 10000 nM | 0.951 | > 2560 nM | 0.982 | > 10200 nM |
| A4-Fuk (B-cell lymphoma, suspension) | 0.888 | > 2560 nM | 0.322 | 1.95 nM | 0.973 | > 500 nM | 0.966 | > 10000 nM | 0.886 | > 2560 nM | 0.954 | > 10200 nM |
| EB2 (Burkitt lymphoma, suspension) | 0.341 | 60.7 nM | 0.977 | > 100 nM | 0.99 | > 500 nM | 0.989 | > 10000 nM | 0.967 | > 2560 nM | 0.773 | 3630 nM |
| Daoy (medulloblastoma, adherent) | 0.326 | 55.1 nM | 0.415 | 3.74 nM | 0.984 | > 500 nM | 0.988 | > 10000 nM | 0.933 | > 2560 nM | 0.731 | 2700 nM |
| MG-63 (osteosarcoma, adherent) | 0.982 | > 2560 nM | 0.644 | 16.7 nM | 0.949 | > 500 nM |  |  | 0.712 | 706 nM | 0.981 | > 10200 nM |
| NCI-H1155 (large cell lung carcinoma, suspension) | 0.556 | 221 nM | 0.836 | 50.1 nM | 0.985 | > 500 nM | 0.993 | > 10000 nM | 0.99 | > 2560 nM | 0.97 | > 10200 nM |
| LOU-NH91 (lung squamous cell carcinoma, adherent) | 0.973 | > 2560 nM | 0.528 | 7.5 nM | 0.77 | 208 nM |  |  | 0.971 | > 2560 nM | 0.986 | > 10200 nM |
| TUR (B-cell lymphoma, suspension) | 0.255 | 34.1 nM | 0.38 | 3 nM | 0.985 | > 500 nM | 0.933 | > 10000 nM | 0.895 | > 2560 nM | 0.786 | 4040 nM |
| RL95-2 (endometrium, adherent) | 0.595 | 291 nM | 0.603 | 11.9 nM | 0.803 | 244 nM | 0.892 | > 10000 nM | 0.9 | > 2560 nM | 0.978 | > 10200 nM |
| NCI-H322M (lung adenocarcinoma, suspension) | 0.883 | > 2560 nM | 0.902 | > 100 nM | 0.926 | > 500 nM | 0.938 | > 10000 nM | 0.975 | > 2560 nM | 0.987 | > 10200 nM |
| Detroit562 (head and neck, adherent) | 0.928 | > 2560 nM | 0.502 | 6.31 nM | 0.923 | > 500 nM | 0.978 | > 10000 nM | 0.816 |  | 0.976 | > 10200 nM |
| NCI-H2081 (small cell lung carcinoma, suspension) | 0.988 | > 2560 nM | 0.752 | 34.9 nM | 0.985 | > 500 nM | 0.988 | > 10000 nM | 0.932 | > 2560 nM | 0.92 | > 10200 nM |
| D-392MG (glioma, adherent) | 0.679 | 609 nM | 0.631 | 16.4 nM | 0.977 | > 500 nM | 0.959 | > 10000 nM | 0.962 | > 2560 nM | 0.906 | > 10200 nM |
| NCI-H520 (lung squamous cell carcinoma, adherent) | 0.493 | 153 nM | 0.727 | 28.3 nM | 0.978 | > 500 nM | 0.985 | > 10000 nM | 0.971 | > 2560 nM | 0.812 | 5690 nM |
